Reference: paper PMC4336329 (PLoS ONE, 2015)
About 14,000 (4.5%) of roughly 310,000 compounds showed an effect of 50% or more. Effects have a minus sign here. Some of the results follow.

Target: human ether-à-go-go-related gene (hERG) potassium channel (human, UniProt Q12809)
Test: primary screen, population patch clamp on CHO cells stably expressing hERG
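Also: peak tail current of the secondary pulse compared with the same well before compound.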

human ether-à-go-go-related gene (hERG) potassium channel, sequence (Q12809 whole entry, looked up): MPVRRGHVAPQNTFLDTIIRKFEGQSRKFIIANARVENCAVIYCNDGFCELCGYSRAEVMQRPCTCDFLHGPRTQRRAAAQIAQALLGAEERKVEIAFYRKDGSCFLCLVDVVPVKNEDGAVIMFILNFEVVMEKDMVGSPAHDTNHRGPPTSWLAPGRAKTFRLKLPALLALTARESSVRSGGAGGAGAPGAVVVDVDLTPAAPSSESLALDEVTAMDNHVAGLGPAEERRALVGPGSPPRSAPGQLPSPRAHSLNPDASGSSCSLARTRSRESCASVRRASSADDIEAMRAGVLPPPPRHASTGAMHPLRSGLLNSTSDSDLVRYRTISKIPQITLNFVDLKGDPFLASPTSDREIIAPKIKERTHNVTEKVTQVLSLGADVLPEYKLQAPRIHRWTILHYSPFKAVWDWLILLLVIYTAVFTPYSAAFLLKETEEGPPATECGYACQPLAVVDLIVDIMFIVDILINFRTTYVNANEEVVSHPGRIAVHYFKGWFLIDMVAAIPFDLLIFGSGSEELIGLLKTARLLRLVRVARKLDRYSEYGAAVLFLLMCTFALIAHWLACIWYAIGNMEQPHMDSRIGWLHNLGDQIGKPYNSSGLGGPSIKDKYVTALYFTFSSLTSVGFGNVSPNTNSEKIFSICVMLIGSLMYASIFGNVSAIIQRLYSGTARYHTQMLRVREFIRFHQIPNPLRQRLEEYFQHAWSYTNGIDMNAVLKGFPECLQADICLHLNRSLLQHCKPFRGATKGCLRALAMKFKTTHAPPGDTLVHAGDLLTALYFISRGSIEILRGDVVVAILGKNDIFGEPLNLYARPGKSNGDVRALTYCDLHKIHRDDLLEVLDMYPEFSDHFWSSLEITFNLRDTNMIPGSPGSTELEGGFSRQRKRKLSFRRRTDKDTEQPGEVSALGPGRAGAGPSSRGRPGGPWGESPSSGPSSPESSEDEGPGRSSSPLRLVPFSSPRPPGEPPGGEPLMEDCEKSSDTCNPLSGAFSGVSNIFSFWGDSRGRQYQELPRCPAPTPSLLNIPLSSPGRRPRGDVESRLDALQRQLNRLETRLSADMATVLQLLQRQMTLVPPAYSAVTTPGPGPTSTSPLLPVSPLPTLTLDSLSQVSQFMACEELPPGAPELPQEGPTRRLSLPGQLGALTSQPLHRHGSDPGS

First: C/C(CC(=O)Nc1ccc(F)cc1)=N\NC(=O)Cc1csc(N)n1
Second: O=C(CN1C(=O)C2C3C=CC(C3)C2C1=O)Nc1ccc(F)cc1 (centres unmarked)
The “hERG current change (%, negative = inhibition) at 10uM” value of the first is higher: 15.8% for the first, 11.9% for the second.

Compared with Cc1cc(C=O)c2c(c1)C=CC1(Oc3ccccc3C(=O)N1C)O2 (centres unmarked), O=C1Nc2ccccc2/C1=C/c1ccnc2ccccc12 is lower in “hERG current change (%, negative = inhibition) at 10uM” value: -6.89% for the first, -11.5% for the second.

First: Cn1c(/C=C/c2cccc([N+](=O)[O-])c2)c([N+](=O)[O-])c(=O)n(C)c1=O
Second: CC(=O)/C(N=Nc1nc2c([nH]1)c(=O)n(C)c(=O)n2C)=C(\C)O
The “hERG current change (%, negative = inhibition) at 10uM” value of the first is lower: -37.2% for the first, 13.2% for the second.

First: COc1ccc(CSc2nnnn2Cc2ccccc2)cc1OC
Second: COc1ccc(OC)c(NC(=O)CN2C(=O)C(=O)N(Cc3ccccc3)C2=O)c1
The “hERG current change (%, negative = inhibition) at 10uM” value of the first is lower: -43.2% for the first, 4.62% for the second.

Compared with O=C(c1cnn2c1NC(c1ccco1)CC2C(F)(F)F)N1CCN(c2cccc(Cl)c2)CC1 (centres unmarked), S=C(NCc1ccco1)N1CCN(c2cccc(Cl)c2)CC1 is higher in “hERG current change (%, negative = inhibition) at 10uM” value: -18.5% for the first, -13.7% for the second.

First: O=C(CSCc1ccc(Cl)cc1)N/N=C/c1ccc(Cl)cc1Cl
Second: N#CCc1ccc(OC(=O)c2cccnc2Cl)cc1
The “hERG current change (%, negative = inhibition) at 10uM” value of the first is lower: 0.595% for the first, 16.8% for the second.

First: O=C(Nc1ccccc1)c1cccnc1Nc1ccccc1
Second: O=C(CN1C(=O)c2ccccc2C1=O)Nc1ccccc1
The “hERG current change (%, negative = inhibition) at 10uM” value of the first is lower: -3.98% for the first, -0.118% for the second.

Compared with CCOC(=O)c1c(C)[nH]c(C(=O)OCCOc2ccc(Cl)cc2)c1C, CCOc1ccc(OCCC(=O)OCC(=O)Nc2ccc3c(c2)OCCO3)cc1 is lower in “hERG current change (%, negative = inhibition) at 10uM” value: 7.83% for the first, -5.02% for the second.

First: CCC(=NCc1cccnc1)c1c(O)n(Cc2ccccc2)c(=O)[nH]c1=O
Second: Cn1c(SCc2nc3ccccc3[nH]2)nnc1-c1cccnc1
The “hERG current change (%, negative = inhibition) at 10uM” value of the first is lower: -44.6% for the first, 10.3% for the second.

Compared with O=C(OCC(=O)N(CCc1ccccc1)Cc1ccccc1)c1ccccc1[N+](=O)[O-], Cc1ccccc1S(=O)(=O)Cc1ccc(C(=O)NCCc2ccccc2)o1 is lower in “hERG current change (%, negative = inhibition) at 10uM” value: 1.95% for the first, -30.6% for the second.

Going from O=C1CN(C(=O)c2ccccc2F)C(c2ccc(F)cc2)c2cc(F)ccc2N1 (centres unmarked) to COC(=O)C1=C(COc2ccccc2)NC(=O)NC1c1ccc(Br)cc1 (centres unmarked), the “hERG current change (%, negative = inhibition) at 10uM” value rises from -11.7% to 0.599%.

Compared with CN(C)c1oc(-c2cccs2)nc1C#N, CCN(CCO)C(=S)Nc1cc(S(=O)(=O)N(C)C)ccc1C is higher in “hERG current change (%, negative = inhibition) at 10uM” value: 3.2% for the first, 12.2% for the second.

Compared with O=c1ccn(-c2cccc(C(F)(F)F)c2)nc1-c1ccn(-c2cccc(Cl)c2)n1, CC(C(=O)N1CCc2ccccc21)N1CCN(S(=O)(=O)c2ccc(C(F)(F)F)cc2)CC1 (centres unmarked) is higher in “hERG current change (%, negative = inhibition) at 10uM” value: -10.3% for the first, -1.64% for the second.

Going from O=C(CSc1nc(Cc2ccccc2)nc2ccccc12)c1ccc2c(c1)OCCO2 to OCc1ccc2c(c1)c(-c1ccc3c(c1)OCCO3)c(-c1ccccc1)n2-c1ccccc1, the “hERG current change (%, negative = inhibition) at 10uM” value rises from -2.24% to 15.8%.

Going from COc1cc(C(=O)c2cocc2C(=O)c2ccc3c(c2)OCO3)cc(OC)c1OC to Cl.O=C(Nc1nc2ccccc2s1)c1ccc2c(c1)OCO2, the “hERG current change (%, negative = inhibition) at 10uM” value falls from -0.222% to -13.3%.

Going from CN1CCN(c2ccc(NC(=S)NC(=O)c3cccc4c(Cl)cccc34)cc2)CC1 to O=C(CCN1CCN(c2ccc([N+](=O)[O-])cc2)CC1)c1ccc(Cl)cc1, the “hERG current change (%, negative = inhibition) at 10uM” value falls from 0.63% to -72.4%.

First: COc1ccc(N2CCN(CC(O)COc3ccc(C)c(C)c3)CC2)cc1.Cl (centres unmarked)
Second: COc1ccc(OCC(=O)N2CCc3c([nH]c4ccccc34)C2c2ccccn2)cc1 (centres unmarked)
The “hERG current change (%, negative = inhibition) at 10uM” value of the first is lower: -43.7% for the first, 21.4% for the second.

Going from O=C(O)CCCC(=O)Nc1cccc2cccnc12 to COC(=O)c1cccc(NC(=O)CSc2ncn[nH]2)c1, the “hERG current change (%, negative = inhibition) at 10uM” value falls from 17.1% to 0.85%.

Compared with CCC(C)C1NC(=O)C(C(C)=O)=C1O (centres unmarked), CCSc1nnc(NC(=O)CSc2nc3c(c(=O)n2CCOC)SC(C)C3)s1 (centres unmarked) is lower in “hERG current change (%, negative = inhibition) at 10uM” value: 1.82% for the first, -18.2% for the second.

Compared with NNC(=O)c1ccc(COc2ccc(Br)cc2)o1, CCOc1ccc(NC(=O)CSc2nnc(-c3ccccn3)n2C)cc1 is lower in “hERG current change (%, negative = inhibition) at 10uM” value: 4.61% for the first, -13.5% for the second.

Compared with CN(C)Cc1cc(C(C)(C)C)c(O)c(C(C)(C)C)c1, Cc1cc(C)n(CCCNC(=O)c2ccc(C)o2)n1 is higher in “hERG current change (%, negative = inhibition) at 10uM” value: -26% for the first, -1.15% for the second.

Going from COc1ccc(CCN(Cc2ccccn2)C(=S)Nc2cccc(SC)c2)cc1OC to COc1ccc(CCN2CC(C(=O)Nc3ccc(S(C)(=O)=O)cc3)CC2=O)cc1OC (centres unmarked), the “hERG current change (%, negative = inhibition) at 10uM” value rises from -37.3% to -1.13%.

First: O=C(CN1C(=O)C(c2ccccc2)Oc2cccnc21)NCc1ccccc1F (centres unmarked)
Second: CCC(=O)CC(c1ccccc1)c1c([O-])c2ccccc2sc1=O.[Na+] (centres unmarked)
The “hERG current change (%, negative = inhibition) at 10uM” value of the first is higher: 6.46% for the first, -5.79% for the second.

First: CSc1ccc(Cl)c(C(=O)NC2CCCC2)c1
Second: Cc1ccc(N(CC(=O)NC2CCCC2)C(=O)Cn2nnc(-c3ccccc3F)n2)cc1
The “hERG current change (%, negative = inhibition) at 10uM” value of the first is higher: 7.82% for the first, -50% for the second.

Compared with O=C(NC1CCS(=O)(=O)C1)OC1CCCCC1 (centres unmarked), O=C(NCC1CCCO1)c1cc(C(=O)C2CC2)c[nH]1 (centres unmarked) is lower in “hERG current change (%, negative = inhibition) at 10uM” value: 9.09% for the first, -2.79% for the second.

First: O=C(Nc1cccc(S(=O)(=O)N2CCCC2)c1)c1cc(=O)[nH]c2ccccc12
Second: O=C(COC(=O)C1CCN(S(=O)(=O)c2ccc3c(c2)OCCO3)CC1)Nc1cccc2ccccc12
The “hERG current change (%, negative = inhibition) at 10uM” value of the first is lower: -3.55% for the first, 11.7% for the second.

Compared with CC(C)(C)NC(=O)/C(=C\c1ccco1)NC(=O)c1ccco1, COc1cc(OC)c(NC(=O)c2ccco2)cc1Cl is lower in “hERG current change (%, negative = inhibition) at 10uM” value: 10.7% for the first, -14.3% for the second.

First: CC(C)(C)SCCNC(=O)CN(c1ccc(F)cc1)S(C)(=O)=O
Second: CS(=O)(=O)N(CC(=O)N1CCOCC1)Cc1ccc(Cl)cc1
The “hERG current change (%, negative = inhibition) at 10uM” value of the first is lower: -2.06% for the first, 4.67% for the second.

First: COc1cc(OC)cc(C(=O)NCCn2ccc3ccccc32)c1
Second: CC(/C=N/NC(=O)c1ccc2nc(C)[nH]c2c1)=C\c1ccccc1
The “hERG current change (%, negative = inhibition) at 10uM” value of the first is higher: 3.65% for the first, -9.33% for the second.

First: CCn1ncc(CNC(=O)CCSc2nc(-c3ccco3)cc(C(F)(F)F)n2)c1C
Second: CCc1nc(NCc2ccco2)c2oc3ccccc3c2n1.Cl
The “hERG current change (%, negative = inhibition) at 10uM” value of the first is higher: -4.57% for the first, -19.6% for the second.

Compared with N#CCCn1nc(-c2ccccc2)c2ccccc2c1=O, O=C1c2ccccc2CCCC12N=NCC2c1cccc2ccccc12 (centres unmarked) is higher in “hERG current change (%, negative = inhibition) at 10uM” value: -10.1% for the first, 9.74% for the second.

First: CCN(C(=O)C(C)Sc1ccc(S(=O)(=O)N2CCN(C)CC2)cn1)c1ccccc1 (centres unmarked)
Second: O=C(Nc1ccc(N2CCOCC2)cc1)C1CCCN(S(=O)(=O)c2ccccc2)C1 (centres unmarked)
The “hERG current change (%, negative = inhibition) at 10uM” value of the first is lower: -11.3% for the first, 3.11% for the second.

First: N=c1c(S(=O)(=O)c2ccccc2)cc2c(=O)n3ccccc3nc2n1C1CCCC1
Second: Cc1cccc(C(=O)NC2CC3CCCC(C2)N3Cc2ccccc2)c1 (centres unmarked)
The “hERG current change (%, negative = inhibition) at 10uM” value of the first is higher: 1.62% for the first, -40.9% for the second.

First: COc1ccc(-c2nn(-c3ccccc3)cc2/C=N/NC(=O)c2cccc(S(=O)(=O)Nc3ccccc3OC)c2)cc1
Second: CCN(CC)S(=O)(=O)c1ccc(C(=O)OCC(=O)Nc2ccc(-c3nc4ccc(C)cc4s3)cc2)cc1
The “hERG current change (%, negative = inhibition) at 10uM” value of the first is higher: 1.75% for the first, -1.97% for the second.

Compared with Cc1cc(C(=O)COC(=O)c2cccs2)c(C)n1-c1c(C)n(C)n(-c2ccccc2)c1=O, CCOC(=O)c1sc(=S)n(-c2ccccc2)c1C is higher in “hERG current change (%, negative = inhibition) at 10uM” value: 0.195% for the first, 9.67% for the second.

Going from O=C(c1cccnc1Nc1ccc2c(c1)CCC2)N1CCOCC1 to Cc1cc(C)c(C)c(S(=O)(=O)NCc2ccc(C(=O)N3CCOCC3)cc2)c1C, the “hERG current change (%, negative = inhibition) at 10uM” value falls from -2.98% to -4.97%.

Going from COc1ccccc1C(=O)Nc1nnc(S(=O)(=O)N2CCC(C)CC2)s1 to COc1ccccc1CCN=C(N)NS(=O)(=O)c1cc(F)ccc1F, the “hERG current change (%, negative = inhibition) at 10uM” value falls from 6.16% to -3.69%.

Going from O=C(Cn1ccc2ccccc2c1=O)NCCC(=O)N1CCN(C(=O)c2ccco2)CC1 to NC(=O)c1ccc(CN2CCC(Cc3ccccc3)CC2)cc1, the “hERG current change (%, negative = inhibition) at 10uM” value falls from -5.55% to -57.1%.

First: CCCCN(Cc1cc2ccccc2[nH]c1=O)S(=O)(=O)c1ccc(C)cc1
Second: O=C(COc1ccc(Br)cc1Br)NN1C(=O)c2ccccc2C1=O
The “hERG current change (%, negative = inhibition) at 10uM” value of the first is higher: -5.71% for the first, -11.9% for the second.

Compared with Cc1ccc2nc(C)cc(C(=O)OCC(=O)c3ccc(Cl)c([N+](=O)[O-])c3)c2c1, Cc1cc(Nc2ccccc2)nc(-c2ccccc2O)n1 is lower in “hERG current change (%, negative = inhibition) at 10uM” value: 4.6% for the first, 3.21% for the second.

Going from Clc1ccc(C[n+]2c(-c3ccccc3)cc(-c3ccccc3)cc2-c2ccccc2)cc1.[O-][Cl+3]([O-])([O-])[O-] to CCOC(=O)C1CCN(CC(=O)Nc2c(C(=O)OC)[nH]c3ccc(Cl)cc23)CC1, the “hERG current change (%, negative = inhibition) at 10uM” value rises from -79.5% to -15%.

Going from O=C(C1CCCN1S(=O)(=O)c1ccc(Cl)c(Cl)c1)N1CCCCC1 (centres unmarked) to O=C(CSCc1c(Cl)cccc1Cl)N1CCOCC1, the “hERG current change (%, negative = inhibition) at 10uM” value falls from 1.18% to 0.183%.

Compared with COC(=O)c1c(NC(=O)CC2NCCNC2=O)sc2c1CCCC2 (centres unmarked), COCCCNC(=S)NC1CC2CCCC(C1)N2Cc1ccco1 (centres unmarked) is lower in “hERG current change (%, negative = inhibition) at 10uM” value: 2.63% for the first, -18.8% for the second.
